# Measurements taken from the supplement of paper PMC11417369.
# This is one part of the list.
# Test system: PfAP2-HC AP2 domain (GST-tagged)
# Test: gcPBM binding intensity (ln(normalized median fluorescence intensity)); higher = stronger DNA binding
# How it was run: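 In this array assay, P. falciparum DNA-binding domains with a GST tag, expressed in E. coli, were applied for 1 h to primer-extended double-stranded 36-bp intergenic genomic probes and negative controls on an Agilent 4 × 180k array. Bound protein was visualised with Alexa488 anti-GST antibody at 488 nm. Binding intensity is the highest Masliner-normalised natural-log median intensity across replicate spots of either probe orientation.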
row,Sequence,gcPBM binding intensity (ln)
1,ACATATCTATCGTTTTTAATTGTATATTATTATAAC [TGCATGCA_negctrl_site144],9.76
2,TCTTGTATATGTTAAAGTACACAACAATATATATAT [XGTACX_site6814],9.6
3,AGAAAAAAACAACATGCACACGCACCCACAAAAAAA [CACACA_site7908],10.4
4,TAATGAGCGCTTGTAGTGCATTATATTCAAAAATAT,9.47
5,ATATTCTTGTTTAATACACACTGTAGTATTATATAT [CACACA_site4400],9.89
6,TCCCACTGTTATATTGAAAAAAAAAAAAAAAAAAAA [TGCATGCA_negctrl_site288],8.95
7,AGATAAAATATATATGCACACACATATATATTTCAT [CACACA_site9183],10
8,ATAATTATTTAATATATATATATTATTTCGAATGTT [GTGCAC_negctrl_site688],9.69
9,TAATTATTTAAAAAGAGTACATTTTTTTTTTTTTTT [XGTACX_site1060],9.31
10,TTAATAATTAATATATGTACTGATAAATAACATATA [XGTACX_site3966],9.44
11,ATTCTATATAAATATACACACATATATAAAATACAT [CACACA_site2293],9.88
12,GCGTATACTTGTAACGGTACACAGGAAATTATAGAA [XGTACX_site507],9.69
13,AAGATACACCTTTTTAGTACTTACATTTTTTTTATT [XGTACX_site1373],9.83
14,TCTTTGTTTTTTTTTTTTAAACAAAATCATCAAAGG [XGTACX_negctrl_site192],9.4
15,AATAAATATATATACACACCCATATATATATATATA [CACACA_site2595],9.63
16,TTAATGAAATATTATACACACAAAAAAATAATTTTA [CACACA_site4231],9.77
17,TAATGTTGTTTCTGAGGTACACAATTTTTTTTATTT [XGTACX_site8035],9.73
18,TACACTTTTTTTTGTACACACTAAAAAGATTAACAA [CACACA_site6037],9.57
19,TTTTTTTTTTGATGAGCACACATGTTTTTTCTTAGA [CACACA_site3171],9.64

row,Sequence,gcPBM binding intensity (ln)
1,AAAAAATATTTATGTTCACACATTTTATATATGATA [CACACA_site4821],9.63
2,AAATATTTTTAAAGAAGTACTTTTTAAAAATAATCT [XGTACX_site4897],9.27
3,CCAACATAGAGGGGCACACACATATATACCTAAAAA [CACACA_site5088],10.4
4,AGATTATAAAATTCTACACACATATATACCTATATA [CACACA_site5848],9.85
5,CTGTGTTTTGGTTGTACACACGCTACATTCTATATT [CACACA_site2698],10
6,AAAATAATTGTTTACACACCCATTTGTAATTTTACC [CACACA_site3614],9.84
7,ACCATACAGAATAATGCATGTTCCTTTTTATGAATA [TGCATGCA_site995],9.56
8,TATACTTGTAAATGCACACATAAGATGCGACTAATG [CACACA_site2118],9.73
9,AAAAAAATAAAGGATATACACACTAATTATATATAT [CACACA_site2812],9.81
10,TATAAAAGTAGACACACACACATATAAATATAAATA [CACACA_site6567],10.5
11,TCTATATCAACCAGTTGTACTGAATTTACTATATTT [XGTACX_site4205],9.8
12,AAAAAAAAAAATGGTTGTACTTTTTTTATTTGGTGC [XGTACX_site4498],9.44
13,GTAGACTGAAACCACACACACATATATAAATATATT [CACACA_site6433],10.4
14,ATAGACTTTTGTTTTGTTTTATTTTATTGTATTGTA [CACACA_negctrl_site618],9.73
15,ATATTATATTGGATGTTGCACTTAACAAAAGGATAT [GTGCAC_site9478],9.61
16,ATTTACATTATATTGAATATGCCATATTATATTATT [CACACA_negctrl_site811],9.78
17,TCTAACATATTTTTAATACACACTTAAAAAAGTACT [CACACA_site1366],9.54
18,AATGCTTTTCATCAAGTGCAATATGTTAATACAAAC [GTGCAC_site9619],9.4
19,AGAAAAAAAAAAAAAAAACACACGGTACATTCAAAG [CACACA_site2],9.88

row,Sequence,gcPBM binding intensity (ln)
1,TAATTTTCATATTTCTGTACATATATTATAAATATA [XGTACX_site3480],9.58
2,TAATATATATATATTACACACACGTATTATTAAATA [CACACA_site432],9.83
3,TGTATGTATAATTGAGTGCACAGAAAAAAAAAAGAA,9.85
4,AATTAAAAAGAAAAAAGTACATATTTTTTTAAAAAA [XGTACX_site7384],9.47
5,ATATATATATATATGTGTACTAATAAGGTTAAATAA [XGTACX_site1535],9.85
6,AAATATATATTTCTTAGTACATATGTATTTTTTTTT [XGTACX_site938],9.74
7,AATAAAAAAGAATATACACACATAAATATAAAATAT [CACACA_site683],10
8,ACAAAATGTAGATATTGTACATATTGTAGATATTGT [XGTACX_site7619],9.82
9,TTTGACAAATTATTGTGTACACAATATTATTATATA [XGTACX_site8320],9.81
10,ATTTAAGATTTAATCACACACATATAGATTATAGAC [CACACA_site7383],10
11,ATGAAGAAGTGTAAATGTACATTTTATGTAGAACAA [XGTACX_site6925],9.82
12,TTTACAGAAAGTTACATACACACTAATATTTACACC [CACACA_site1009],9.79
13,TTTATATGTATTAAGTGTACACATATAATGTGTTTG [XGTACX_site6629],9.79
14,TATAAGAGGATATATACACACAAAAATATGTACAGT [CACACA_site6885],10
15,TTATTTTTTTTTTATTGTACTAGGAAAATTTCGATA [XGTACX_site702],9.43
16,TAATATTAATCCTAGTGTACATTAATTTATATGTAT [XGTACX_site3583],9.61
17,ATTATATATATATAAACACACAAATATTTTTATATA [CACACA_site5005],9.7
18,ACCTATATAAGTTATACACACAAATATAGATATATA [CACACA_site7356],9.87
19,TACAGACAGAAATGCACACACATATTTATATTTATA [CACACA_site7139],10.1
